Data as given in PMC10668032.
The list shows a part of the results. At the low end of the ranking the order means little.

Target: SIX1 homeodomain (reference allele) (UniProt Q15475)
Test: universal protein binding microarray
Conditions: Universal all-10-mer PBM (8x60K, AMADID 030236), 300 nM GST-tagged protein, Alexa Fluor 488 anti-GST; buffer, salt, pH and temperature not stated; high values mean tight binding; most listed sequences are background and not binding sites; double strand, one strand shown

| Sequence | binding signal [E-score] |
| --- | --- |
| AGAAGCCG | -0.021 |
| GAAATCGA | -0.171 |
| ACAGATAG | 0.208 |
| ATTTACAC | 0.0364 |
| AAACTAGT | -0.0695 |
| ATGGGACC | -0.102 |
| CTCATCGC | 0.0165 |
| AGAAGTAC | 0.0496 |
| ATTTTGGA | -0.131 |
| ATTGGTTC | -0.201 |
| AAGAGTAT | 0.277 |
| ATACCGGC | 0.319 |
| AACATTGA | -0.141 |
| GGAACGAA | -0.237 |
| ATGATTAC | -0.00046 |
| CGGGCCCA | -0.155 |
| AACCATAC | 0.0509 |
| CGACCACA | 0.00725 |
| AAATGCAG | -0.162 |
| CCCGACAA | -0.113 |
| AAATCACG | -0.277 |
| CACACCTA | 0.125 |
| ACACTACA | 0.0847 |
| TCATAAGA | 0.0505 |
| CCAAAACC | 0.0885 |

| Sequence | binding signal [E-score] |
| --- | --- |
| ACGATGGC | -0.12 |
| AATAGATT | -0.0337 |
| AATACAGG | 0.12 |
| AGGATTTA | -0.0644 |
| ACGCCAAG | -0.153 |
| GTACGGAA | -0.173 |
| AGTGGTTC | -0.0795 |
| AACCACGG | -0.146 |
| CGATTATA | 0.211 |
| AGCTGCTC | -0.124 |
| AGTTCGAA | -0.0995 |
| CGTGCGCA | -0.206 |
| GGAAACGA | -0.111 |
| AATTTTCG | -0.32 |
| ATAAGGTG | 0.113 |
| CTAGGCTA | -0.144 |
| AGGTCGAA | -0.0608 |
| GGTATGCA | 0.0612 |
| GCGACCTA | -0.00545 |
| CGAGTTCA | -0.129 |
| AATGGATA | 0.354 |
| GCCTTGGA | -0.0531 |
| CACGTCTA | 0.00163 |
| AGGCAATC | 0.063 |
| ATAGATTG | 0.166 |

| Sequence | binding signal [E-score] |
| --- | --- |
| ACGATAAC | 0.11 |
| CGACTAAC | -0.217 |
| CGGCTGCA | 0.00566 |
| AGCAGCCC | -0.123 |
| AAGGTATG | 0.201 |
| CCCAGGAA | 0.0245 |
| ATCTGCGC | 0.162 |
| CTCTCTCC | 0.0089 |
| ATCGAGTG | 0.0789 |
| CAGTTAGC | -0.146 |
| AAGCTAGT | -0.139 |
| TACATTCA | -0.206 |
| CAGGTCAG | 0.05 |
| ACCCCGCA | 0.139 |
| AGACTGCA | -0.242 |
| GCGCGATA | 0.379 |
| AGATCACG | 0.306 |
| ACGGGTAG | 0.0448 |
| GACACTAC | 0.132 |
| AACCATGT | -0.0387 |
| CCTAGACA | -0.206 |
| ATTGTTGA | 0.0805 |
| CCGATTCC | -0.0668 |
| AGGGATAG | 0.27 |
| AGCCTTGC | -0.117 |

| Sequence | binding signal [E-score] |
| --- | --- |
| CTCAGAAG | -0.138 |
| GTAGTTAA | 0.0163 |
| CCTCAGCA | -0.0194 |
| GCCCTACC | -0.0381 |
| ACACATAT | 0.272 |
| CATTGCCG | -0.228 |
| AGCTCTCA | -0.0702 |
| CAGTGGTA | 0.101 |
| ACGCCCAT | 0.0376 |
| GATGGTGA | 0.00239 |
| GGGGAGAA | -0.0164 |
| AGGAGATA | 0.331 |
| CCCGAAGC | 0.0864 |
| CAGCGCAG | -0.14 |
| CTCAGGCC | -0.173 |
| ATCATGTG | 0.328 |
| GTCATCCA | 0.0713 |
| GGCTTCAA | -0.162 |
| TACTCCCA | 0.162 |
| CCCATGAA | 0.0356 |
| AATCGGTG | 0.129 |
| CGCCCCCA | -0.153 |
| ATTCATAG | -0.0252 |
| AGGCCGGG | -0.112 |
| CGAACTAA | -0.145 |

| Sequence | binding signal [E-score] |
| --- | --- |
| CCCCCGGA | 0.228 |
| AAGTCAGT | -0.131 |
| AACACACA | -0.0559 |
| AGCTCGTC | -0.222 |
| GATTATGC | 0.265 |
| ACCAACAG | 0.0249 |
| CTTCGGAA | -0.187 |
| CCCTAGCA | 0.0254 |
| AACGTGTA | -0.129 |
| GTGGAAAC | -0.284 |
| CCAAGTGG | 0.0554 |
| ACATTAGA | -0.0395 |
| ATTCCATC | 0.0721 |
| CGAGGCAC | -0.018 |
| CTGGCTCC | -0.159 |
| ATCACTCG | 0.269 |
| AGTCCGAA | -0.127 |
| AAGGTTGA | -0.167 |
| AACATAAT | 0.0691 |
| GTGTTTGA | -0.029 |
| AATAAGAT | 0.0671 |
| GTATCATA | 0.471 |
| CATCGGGG | 0.0553 |
| GGGGGGAA | -0.0515 |
| TGATACAA | 0.337 |

| Sequence | binding signal [E-score] |
| --- | --- |
| ATTCGAAG | -0.135 |
| CTGGTGCA | -0.0842 |
| CTGACCAC | -0.114 |
| AGTTACTC | -0.133 |
| AATGGACT | -0.374 |
| AGGGCACA | -0.0128 |
| AGGGGATC | 0.426 |
| CACAAGGA | -0.018 |
| CACTCCAG | 0.0773 |
| CAACAATG | -0.125 |
| AATTCCAT | -0.179 |
| CAATCGGC | -0.052 |
| ACACGTTA | -0.145 |
| CGATCTAG | 0.158 |
| AGCTAAGC | -0.29 |
| ATGAAATG | -0.134 |
| AAATAGTA | 0.0508 |
| ACCGGTTA | -0.0804 |
| AACTCCGG | 0.0002 |
| CTGTCATC | 0.0102 |
| AGTATTAA | 0.233 |
| CCGCATAG | 0.0244 |
| CTCCCTTA | -0.101 |
| TAGTTAAA | -0.0474 |
| AGAGTTCC | -0.142 |

| Sequence | binding signal [E-score] |
| --- | --- |
| CTGGGAGA | 0.12 |
| AGTCGCCG | -0.183 |
| AGTTAAGC | -0.179 |
| ACTCTTAA | -0.254 |
| GCAGTACA | -0.0521 |
| ACAAAAAA | -0.331 |
| TCACCAAA | -0.0555 |
| CGCCGCTC | -0.219 |
| CCTGTGTC | 0.0393 |
| TCTCTAAA | -0.0937 |
| ATACGAGA | 0.278 |
| GGGTTTTA | -0.00462 |
| CTGCAAAG | -0.158 |
| ACCCCTTG | 0.151 |
| AACTGCAG | -0.189 |
| CGCTCGGA | 0.0152 |
| CATAGAAC | -0.043 |
| GGCCAACC | 0.000685 |
| CACGCCAG | 0.141 |
| CATAGCCC | -0.144 |
| AGACATGG | -0.0687 |
| CGTTCTAA | -0.0136 |
